Results published in PubChem BioAssay AID248 (DTP/NCI, 2004).
Toxic doses and inconclusive results are not listed. Certain results were filed several times, with different values. The list is limited to them. There may be further records. Values that stand side by side do not match, cause unknown; dose, time, organism, isomer or construct need not be as stated for each record.

Test system: L1210 leukemia ip in BDF1 mice, survival T/C
Test: NCI In Vivo Anticancer Drug Screen. Data for tumor model L1210 Leukemia (intraperitoneal) in B6D2F1 (BDF1) mice
Details: endpoint: mean survival time, higher = longer survival

SMILES: COc1cc([C@@H]2c3cc4c(cc3[C@@H](OC3OC5COC(C)OC5C(O)C3O)[C@H]3COC(=O)[C@H]23)OCO4)cc(OC)c1O (stereo partly drawn)
- T/C (dose: 8.0 mg/kg/injection, schedule: Q01DX009 (ip), vehicle: Klucel (hydroxypropylcellulose) (HPC)): 107 % of control, 394 % of control, 480 % of control

SMILES: C1OC1[C@@H]1CC[C@H]1C1CO1 (stereo partly drawn)
- T/C (dose: 200.0 mg/kg/injection, schedule: Q01DX001 (ip), vehicle: saline): 118 % of control and 161 % of control

SMILES: COc1ccc(CC(N)C(=O)O)cc1N(CCCl)CCCl (stereo not drawn)
- T/C (dose: 0.3 mg/kg/injection, schedule: Q01DX009 (ip), vehicle: carboxymethylcellulose (CMC)): 122 % of control and 151 % of control
